B1: CPEB3 Ribozyme (parent)
chain: UAACAGGGGGCCACAGCAGAAGCGUUCACGUCGCAGCCCCUGUCAGAUUCUGGUGAAUCUGCGAAUUCUGCUGUAUAUCUC

The source gives no read counts; variants with many changes may rest on few reads.

The variants in the series derive from B1. The experiment in a line: self-cleavage, relative activity (ratio to wild type); higher = more cleavage; in vitro, sequencing. Put shortly:
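After error-prone PCR and barcoding, CPEB3 ribozyme mutant libraries were transcribed with T7 RNA polymerase at 37°C for 5 hours, then given 15 min with DNase I before an EDTA stop, and they cleaved during both steps. Reverse transcription with template switching preceded Illumina sequencing. Relative activity divides a variant's cleaved/total read fraction by the unmutated ribozyme's. At least 5 reads were required per variant, and three batches were averaged.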
With UGACAGGGGGCCACAGCAGAAGCGUUCACGUCGGAGCCCCUGUCAGUUUCUGGUGAAUCUGCGAAUUCUGCUGUAUAUCAC [A2G C34G A47U U80A], the self-cleavage came out at 0.28. For the variant UGACAGGGGGCCACAGCAGAAGUGUUCACGUCGCAGCCCCUGUCAGAUUCUGGUGAAUCUGCGAGUUCUGCUGUAUAUCUC [A2G C23U A65G], the self-cleavage came to 0.23. In the case of UGACAAGGGGCCACAGCAGAGGCGUUCACGUCGCUGCCCCUGUCAGAUUCUGGUGAAUCUGCGAAUUCUGCUGUAUAUCUC [A2G G6A A21G A35U], the self-cleavage worked out at 0.33. Next, UGACAAGGGGCCACAGCAGAAGCGUUCACGUCGCAGUCCCUGUCAGAUUUUGGAGAAUCUGCGAAUUCUGCUGUAUAUCUC [A2G G6A C37U C50U U54A]: 0.07; UGACAGGGGGCCACAGCAGAAGCGUUCAUGUCGCAGCCCCUGUCAGAUUCAGGAGAAUCUGCGAUUUCUGUUGUAUAUCUC [A2G C29U U51A U54A A65U C71U]: 0.25. Next, UGACAGGGGGCCACAGCAGAAGCGUUCACGUCGCAGCCCCUGUCAGAUUAUGGUGAAUCUGCGAAUUCUGCCGUAUAUCUC [A2G C50A U72C]: 0.34; UGACAGGGGGCCACAGUAGAGGCGUUCACGUCGCGGCCCCUGUCAGAUUCUGGUGAAUCUGCGAAUUCUGCUGUAUAUCUC [A2G C17U A21G A35G]: 0.7. Next, UGACAGGGGGCCACAGCAGAAGCGUUUACGUCGCAGCCCCUGUCAGAUUCUGGCGAAUCUGCCAAUUCUGCUGUAUAUCUC [A2G C27U U54C G63C]: 0.41; UGACAGGGGGCCACAGCAGAAGCGUUCACGUAGCAGCCCCUGUCAGAUUCUGGGGGAUCUGCGAAUUCUGCUGUAUAUCUC [A2G C32A U54G A56G]: 0.24; UGACAGGGGGCCACAGCAGAAGCGUUCACGUGGCAGCCCCUGUCAGAUUCUGUUGAAUCUGCGAAUUCUGCUGUGUAUGUC [A2G C32G G53U A75G C79G]: 0.03.

Take UGACAAGGGGCCACAGCAGAAGCGUUCACGUCGCAGCCCCUGUCAGAUUCUGGUGAGUCUGCGAAUUCUGCUGUAUAUCUC [A2G G6A A57G]: the self-cleavage worked out at 0.09. With UGACAGGGGGCCACAGCAGAAGCGUUCACGUCGCAGUCCCUGCCAGAUUCAGGUGAAUCUGCGAAUUCUGCUGUAUAUCUC [A2G C37U U43C U51A] the figure was 0.08.

Turning to UGACAGGGGGCCACAGCAGAAGCGUUCACGUCGCAGCCCUCGUCAGAUUCUCGUGAAUCUGCGAAUUCUGCUGUAUACCUC [A2G C40U U41C G52C U78C], the self-cleavage was 0.44. Next, UGACAGGGGGCCACAGCAGAAGCGUUCACGUAGCAGCCCCCGUCAGAUUCUGGUGAACCUGCGAAUUCUGCAGUAUAUCUC [A2G C32A U41C U58C U72A]: 0.17; UGACAGGGGGCCACAGCAGAAGUGUUCACGUCGCAUCCCCUGUCAGAUUCUGGUGAAUCUGCGAAUUCUGCUGUAUAUCUC [A2G C23U G36U]: 0.19; UGACAGCGGGACACAGCAGAAGCGUUCACGACGCAGCCCCUGCCAGAUUCUGGUGAAUCGGCGAAUUCUGCUGUGUAUCUC [A2G G7C C11A U31A U43C U60G A75G]: 0.03. Regarding UGACAGGGGGCCACAGCAGAAGCGUUCACGUCGCAGACCCUGUCAGGUUCAGGUGAGUCUGCUAAUUCAGCUGUAUAUCUC [A2G C37A A47G U51A A57G G63U U69A], the self-cleavage amounted to 0.06. With UGACAAGGGGCCACAGCAGAAGCGUUCACGUCGCAGCCCCAGUCAGAUUCUGGUGAAUCCGCGAAUUCUGCUGUAUAUCUC [A2G G6A U41A U60C] the figure was 0.55; with UGACAGGGGGCCACAGCAGAAGCGUUCACGUCGCAGCCUCUGCCAGAUUCCGAUGAAUCUGCGAAUUCUGCUGUAUAUCUC [A2G C39U U43C U51C G53A], 0.33; with UGACAGGGGGCCACAGCAGAAGCGUUCACGUCGCAGCUCGUGUCAGAUUCUGGGGAAUCUGCGAUUUCUGCUUUAUAUCUC [A2G C38U C40G U54G A65U G73U], 0.04. With UGACAGGGGGCCAUAGCAGAAGCGUUCACGUCGCAGCCCCUGUCAGAUUCUGGUGAACCCGCGAACUCUGCUGUAUAUCUC [A2G C14U U58C U60C U66C] the figure was 0.14; with UGACAGGGGGCCACAGCAGAAGCGUUCACGUCGCAGCCUGUGUCAGAUUCUGGUGAACCUGCGAAUUCUGCUGUAUAUCUC [A2G C39U C40G U58C], 0.16.

In the case of UGACAGGGGGCCACAGCAGAAGCGUUCACGUCGCAGCCCAUGUCAGAUUCUGGUGAAUCUGCGAAUUCUGCAGUAUAUCUC [A2G C40A U72A], the self-cleavage was determined as 0.53.

UGACAGGGGGCCACAGCAGAAGCGUUCAAGUCACAGCCCCUGUCAGAUUCUUGCGAAUCCGCGAAUUCUGCUGUAUAUCUC [A2G C29A G33A G52U U54C U60C]: the self-cleavage was 0.05. With UGACAGGGGGCCACAGCAGAAGCGUUCACGUCGUAGCCCCAGUCAGAUUCAGGUGAAUCUGCGAAUUCUGCUGUAUAUCUC [A2G C34U U41A U51A] the figure was 0.32; with UGACAGGGGGCCACAGUAGAAGCGCUCACGUCGCAGCCCCUGUCUGAUUCUGGUGAAUCUGCGAAUUCAGCAGUAUAUCUC [A2G C17U U25C A45U U69A U72A], 0.05; with UGACAGCGGGCCACAGCAGAAGCGUUCACGUCGCAGCCCCUGUCAGAUACUGGUGAAUCUGCGAAUCCUGCUGUAUAUCUC [A2G G7C U49A U67C], 0.16. UGACAGCGGGCCACAGCAGAAGCGUUCACGUCGCAGCCCCUGUCAGAUUCUGGUGAGCCUGCGAAUUCUGCUGUAUAUCUC [A2G G7C A57G U58C]: the self-cleavage worked out at 0.08.

Consider UGACAGGGGGCCACAGCAGAAGGGUUCAAGUCGCAGCCCCUGUCAGAUUCUGGUGAAUCUGCGAAUUCUGCUGUAUAUCUC [A2G C23G C29A], for which the self-cleavage stood at 0.33. With UGACAAGGGGCCACAGCAAUAGCGUUCACGUCGCAGCCCCAGUCAGACUCUGGUGAAUCGGCGAAUUCUGCUGUAUAUCUC [A2G G6A G19A A20U U41A U48C U60G], the self-cleavage is 0.05.

Turning to UGACAGAGGGCCACAGCAGAAGCGUUCACGUCGCAGCCCCUGUCUGAUUCUGGUGAAUCUGCGAAUUCUGCUGUAUAUCUC [A2G G7A A45U], the self-cleavage came out at 0.2.

As for UGACAGGGGGCCACAGCAGAAGCGUUCACGUCGCAGCCCCUGUCAGAUUCUGGUGAAUGUGCGAAUUCUGAUGUAUAUCUC [A2G C59G C71A], the self-cleavage is 0.18. Next, UGACAGGGGGCCACAGCAGAAGCGUUCACGUCGCAGCCACUGUCAGAUUCUGGUGAAUCUGCGAAUUUUGCUGUAUAUCUC [A2G C39A C68U]: 0.36. With UGACAGGGGGCCAUAGCAGAAGCGUUCACGUCGCAGCCCCUGUCAGAUUCUGGUGAAUCAGCGAACUCAGCUGUAUAUCUC [A2G C14U U60A U66C U69A] the figure was 0.09.

The record behind these values is the RNAGym collection of RNA variant scans (doi:10.1093/nar/gkz1192).
